The campaign covered roughly 150,000 compounds. About 6,500 (4.3%) were called active. Inconclusive means that the source gave no clear call. Such entries were picked first, then a sample of the others. Calls follow the shape of the dose curve; as a rule, active = well fitted inhibition curve with a large enough effect (not every such curve was filed as active); inconclusive = small, poorly fitted or top-dose-only effect, or another doubt; inactive = no such curve, though single readings can be large or run the other way. Potencies of inconclusive entries are doubtful fits and often do not repeat.
target: 15-hydroxyprostaglandin dehydrogenase [NAD(+)] (Homo sapiens) (UniProt P15428); assay: qHTS Assay for Inhibitors of HPGD (15-Hydroxyprostaglandin Dehydrogenase); conditions: purified HPGD, NADH fluorescence kinetic, PGE2 substrate; activity change, negative = inhibition: hits give low values
Method in brief: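 NADH formation kinetics: reaction with 30 uM PGE2 and 1 mM NAD+ (final), 20 nM enzyme, Tris-HCl pH 8 with Tween 20, after 15 min compound preincubation at room temperature. Fluorescence change, last versus first of five reads.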
% is scaled to controls: 0 for no effect and ±100 for the full control effect; potency is read from the fitted curve at half-maximal effect; tags tell the direction and shape of the fitted curve.

UniProt P15428, sequence (P15428 whole entry, looked up): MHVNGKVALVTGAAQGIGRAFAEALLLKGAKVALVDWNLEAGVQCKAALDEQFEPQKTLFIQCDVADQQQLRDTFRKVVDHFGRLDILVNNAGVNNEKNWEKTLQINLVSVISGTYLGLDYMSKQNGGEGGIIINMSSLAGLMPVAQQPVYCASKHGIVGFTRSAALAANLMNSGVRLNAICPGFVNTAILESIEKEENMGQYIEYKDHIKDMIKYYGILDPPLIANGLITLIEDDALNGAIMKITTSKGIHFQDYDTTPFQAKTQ

Activity change, negative = inhibition, inactive:
Cc1ccc(C2CC(c3cccc(Br)c3)Nc3nnnn32)cc1 (stereo unspecified) -23.5%
COc1ccc(S(=O)(=O)N2CCN(C(=O)c3c(-c4ccccc4)noc3C)CC2)cc1 -5.92%
CN[C@@H]1[C@H](O[C@@H]2O[C@H](CO)[C@@H](N)[C@H](O)[C@@H]2O)O[C@H]2C[C@@H](N)[C@@H](O[C@H]3[C@@H](O)[C@H](O)[C@H](N)C[C@@H]3N)O[C@H]2[C@H]1O 1.01%
COC1CCCCC1NS(=O)(=O)c1ccc(Cl)cc1 (stereo unspecified) -8.5%
COc1cccc(NC(=O)COC(=O)CCCc2c[nH]c3ccccc23)c1 -20.9%
COc1cc(C2C(C#N)=C(N)Oc3cc(C)n(Cc4ccccn4)c(=O)c32)cc2c1OCO2 (stereo unspecified) -24.8%
O=C(O)[C@H](Cc1cc(I)c(O)c(I)c1)C1CCCCC1 -10.9%
COc1ccc(CCNS(=O)(=O)c2cccc(F)c2)cc1OC -7.66%
COc1ccc(/C=N/NC(=O)Cn2cnc3ccccc3c2=O)cc1 -8.62%
O=C(O)CCN1C(=O)CC(N2C(=O)/C(=C/c3ccc(Cl)cc3)SC2=S)C1=O (stereo unspecified) -22.5%
Cc1nnc(SCC(=O)NNC(=O)C(C)C)[nH]c1=O -8.28%
CCOC(=O)C(C)(C)C(=O)C(C)(C)C(O)c1ccccn1 (stereo unspecified) -6.37%
[N-]=[N+]=CC(=O)CCCN1C(=O)c2ccccc2C1=O -10.5%
Cc1ccc(Nc2nc(CSc3nnc(-c4ccccc4)n3C)cs2)cc1 -21.5%
COc1cc(C)cc(OC)c1/C=C\C(=O)O -2.23%
O=C(CCN1CCCCC1)Nc1ccc2c(c1)C(=O)c1ccc(NC(=O)CCN3CCCCC3)cc1C2=O -9.15%
O=C(O)C1C2CC3C(OC(=O)C31)C2Cl (stereo unspecified) -9.38%
COc1ccc(C(=O)Nc2cccc(OC(=O)c3ccc(C)c(C)c3)c2)cc1 -12.3%
C[N+]1(C)C[C@@H](O)C[C@@H]1C(=O)[O-] -6.14%
Cc1ccc(N2C(=O)[C@@H]3[C@H](C2=O)C2c4ccccc4C=NN2[C@@H]3C(=O)c2ccc(Cl)cc2)cc1 (stereo partly specified) -26.1%
CCC(C)(C)NC(=O)C(c1ccccc1)N(Cc1cccnc1)C(=O)c1csnn1 (stereo unspecified) 1.81%
Nc1oc2ccc(F)cc2c(=O)c1C=O -27.6%
CCCC(=O)NC(=S)NNC(=O)c1ccc([N+](=O)[O-])cc1 -9.94%

Potency, inconclusive:
N#C/C(=C/c1ccc(N2CCCCC2)o1)c1cccc(F)c1 35.5 µM [inhibitor, single point]
COc1ccc(S(=O)(=O)N2CCN(CCO)CC2)cc1-c1nnc2c3ccccc3c(C)nn12 17.8 µM [inhibitor, partial curve]
O=C(NCCC1=CCCCC1)C1CCN(c2nnc(-n3cccc3)s2)CC1 39.8 µM [inhibitor, partial curve]
CC(C)CC(=O)Nc1ccc2nn(-c3ccccc3)nc2c1 28.2 µM [inhibitor, partial curve]
CC(NC(=O)c1cccc(F)c1)C(c1cccs1)N1CCN(C)CC1 (stereo unspecified) 39.8 µM [inhibitor, single point]
Cc1cccc(C2=NN(c3ccccc3)[C@H](CO)[C@H]2C)c1 35.5 µM [inhibitor, partial curve]
COc1cccc2c(C)c(C(=O)O)[nH]c12 28.2 µM [inhibitor, partial curve]
Cc1cc(C)c2nc(-c3ccccn3)cc(C(=O)NCc3ccco3)c2c1 28.2 µM [inhibitor, partial curve]
CCOC(=O)CNC(=O)CSc1nnc(SCC(=O)NCC(=O)OCC)s1 31.6 µM [inhibitor, single point]
CCn1c(SCC(=O)Nc2ccc(NC(=O)c3ccco3)c(OC)c2)nc2ccccc2c1=O 25.1 µM [inhibitor, partial curve]
COCCN(CCOC)C(=O)c1cc2sc3ccccc3c2s1 15.8 µM [inhibitor, partial curve]
COc1cc2c(C)nc3onc(-c4ccccc4)c3c2cc1OC 28.2 µM [inhibitor, partial curve]
COC(=O)C1=C(C)NC2=C(C(=O)CCC2)C1c1cn(Cc2ccc(Cl)cc2Cl)nc1-c1ccccc1 (stereo unspecified) 31.6 µM [inhibitor, partial curve]
CC(=O)Nc1sc(C)c(C)c1C(=O)OCC(=O)Nc1cc(S(=O)(=O)N2CCCCC2)ccc1Cl 31.6 µM [inhibitor, partial curve]
CCOc1ccccc1C(=O)Nc1nnc(COC)s1 22.4 µM [inhibitor, partial curve]
COc1c(OC(C)=O)ccc(/C=C/c2ccc3cccc(OC)c3n2)c1[N+](=O)[O-] 20 µM [inhibitor, partial curve]
COc1ccc2cc(/C=N/NC(=O)CN(c3ccccc3C)S(=O)(=O)c3ccccc3)c(Cl)nc2c1 28.2 µM [inhibitor, partial curve]
COc1ccc(/C=C2/C(=O)OCc3cc(OC)c(OC)cc32)cc1 25.1 µM [inhibitor, partial curve]
CC(=O)Nc1c(-c2ccc(F)cc2)nc2ccccn12 28.2 µM [inhibitor, single point]
COc1ccc(-c2oc3ncnc(NCCN4CCOCC4)c3c2-c2ccc(OC)cc2)cc1 31.6 µM [inhibitor, partial curve]
Cc1cc(C)c(NC(=S)N2CCCC2C(=O)O)c(C)c1 (stereo unspecified) 25.1 µM [inhibitor, single point]
COC(=O)c1[nH]c2ccc(Cl)cc2c1NC(=O)C1CC1 31.6 µM [inhibitor, partial curve]
CCOC(=O)C1CCN(C(=O)Cc2c(C(=O)O)[nH]c3ccccc23)CC1 31.6 µM [inhibitor, single point]
CCOc1cc(S(=O)(=O)Nc2ccc(CC)cc2)ccc1Cl 28.2 µM [inhibitor, single point]
Nc1c(S(=O)(=O)c2cccs2)c2nc3ccccc3nc2n1Cc1ccccc1 28.2 µM [inhibitor, partial curve]
O=C(c1cc(-c2ccccc2)nc2ccccc12)N1CCc2ccccc2C1 39.8 µM [inhibitor, partial curve, poor fit]
O=C(Nc1cccc(Cl)c1)Nc1nnc(-c2ccncc2)s1 3.55 µM [inhibitor, single point]
CCCn1nc2cc(C(=O)NCCc3ccc(C)cc3)ccc2c1OCC 35.5 µM [inhibitor, partial curve]
N#CC(C#N)=Cc1ccc(-c2ccc(S(=O)(=O)N=C(N)N)cc2)o1 15.8 µM [inhibitor, partial curve]
Cc1ccc(NC(=O)CC2Nc3ccccc3NC2=O)cc1Cl (stereo unspecified) 28.2 µM [inhibitor, partial curve]
N#C/C(=C\c1cn[nH]c1-c1ccc(Cl)cc1)C(=O)NCc1ccccc1 28.2 µM [inhibitor, single point]
COc1ccc(-c2ccc(C#N)c(SCC(=O)Nc3sc4c(c3C#N)CCC4)n2)cc1 6.31 µM [inhibitor, partial curve]
COCCCn1c2nc3ccccc3nc2c2c(=O)n(CC3CCCO3)cnc21 (stereo unspecified) 31.6 µM [inhibitor, partial curve]
COc1cc2cc(CN(C(=O)Nc3ccccc3)C3CCCC3)c(=O)[nH]c2cc1OC 28.2 µM [inhibitor, partial curve]
OC(COc1ccccc1)Cn1cc(Br)cn1 (stereo unspecified) 17.8 µM [inhibitor, partial curve, poor fit]
COc1ccc(C2=NOC(Cn3c(Cc4ccc(Cl)cc4)nc4c3c(=O)n(C)c(=O)n4C)C2)cc1 (stereo unspecified) 10 µM [inhibitor, partial curve]
CCN(CC)c1ccc2cc(C(N)=O)c(=O)oc2c1 14.1 µM [inhibitor, partial curve]

Potency, active:
S=C(c1ccc(N2CCOCC2)cc1)N1CCOCC1 7.94 µM
O=S(=O)(Nc1ccc(Cc2ccncc2)cc1)N1CCCC1 25.1 µM
O=C(Cc1ccc2c(c1)OCCO2)c1c(O)cc(O)cc1O 20 µM
CN(c1ccccc1)c1ccc(/C=C(\CCC(=O)O)c2nc3ccccc3s2)cc1[N+](=O)[O-] 25.1 µM
CN(C)c1nc2c(c(=O)[nH]c(=O)n2C)n1Cc1ccccc1Br 17.8 µM
Cc1nc(NC(=S)NC(=O)c2cccs2)sc1C(=O)N(C)C 22.4 µM
O=C(NCc1ccccc1)c1ccc(Br)o1 12.6 µM
COc1ccccc1CNC(=O)CSc1ccc(C)cc1 14.1 µM
CC1=CC(=O)N(c2ccc(C)cc2)C1c1ccc(Cl)cc1 (stereo unspecified) 22.4 µM
O=C(N/N=C/c1c(Cl)cccc1Cl)c1n[nH]c2c1CCCC2 3.98 µM
CCCCCCC(=O)N(O)C1CC(=O)N(c2ccccc2)C1=O (stereo unspecified) 15.8 µM

Reference: PubChem BioAssay AID894 (National Center for Advancing Translational Sciences (NCATS), 2007)
